From the RNAGym collection of RNA variant scans (doi:10.7554/elife.90254)
Read counts are not given, so values of variants with three or more changes are uncertain.

B1: LINE1-mini (parent)
chain: GGCAGAGCUCAACACAGCGUGGCAAAGUGGCUGUGGCUAGACUGCC

Variants of: B1
Assay: self-cleavage, relative activity (ratio to wild type); higher = more cleavage; in vitro, sequencing; the parent is a self-cleaving ribozyme
In the case of A4C C10U G40A, the self-cleavage is reported as 0.02. With G2A U9G G30U G35U the self-cleavage was 0.1. Variant A6C G7A C18G U28C G29A G33A U34C G40A has a self-cleavage of 0.01. In the case of C8U C18A A24G U34A C37A A41C, the self-cleavage is reported as 0.03. G2A C13G U20A gave a self-cleavage of 1.31. A24U G30A G35U gave a self-cleavage of 0.05. For G36A G44C C46A, the self-cleavage was 0.13. In the case of A4U G5U A16C G44C, the self-cleavage is reported as 0.04. Work on C13A C23U U32C G44A yielded a self-cleavage of 0.03. C10G G19A G22C U43A gave a self-cleavage of 0. C10G A24U A25C U34G C45A gave a self-cleavage of 0. With G5C A11U A16G C31A U38A U43A the self-cleavage was 0.01. Work on U34C G35C C45A C46A yielded a self-cleavage of 0.03. Variant A16G G21A A39G has a self-cleavage of 0.06. Work on A16C G19A G36C C37U yielded a self-cleavage of 0.04. In the case of G1A A16G A25G, the self-cleavage is reported as 0.03. For U9A C18A G35A G36C C37A, the self-cleavage was 0.04. G2C C8A C42A U43G gave a self-cleavage of 0.15. With G30U A41C C45U the self-cleavage was 0.02. G1U G7A A14G G17C C23A gave a self-cleavage of 0.08. G2U C3U C15U G30A G36A gave a self-cleavage of 0.1. In the case of G19U A25U C45U, the self-cleavage is reported as 2.06. With C8A G36A C46A the self-cleavage was 0.15. For C13A U34A A41G, the self-cleavage was 0.01. G1C G2C G17A G19A U20C gave a self-cleavage of 0. Work on C18G U32G C42A C46A yielded a self-cleavage of 0.03. Work on A6U G27U C37A yielded a self-cleavage of 0.13. G5A C13U U38A C45A gave a self-cleavage of 0. Variant C10A A11G G22A A26U A41U has a self-cleavage of 0.01. With A14C G21A G27U C31A C46U the self-cleavage was 0.02. With G5A A24G G44U C45U the self-cleavage was 0.02. With A6G C10G G30C C31U G44C the self-cleavage was 0.01. In the case of G5A G30A G44C, the self-cleavage is reported as 0.05. With A11G A24U U43C C45G the self-cleavage was 0.03. C3U G19A U32A showed a self-cleavage of 0.06. For G7C U9A G19U G33U, the self-cleavage was 0.06. G19A U20A G33A G35C gave a self-cleavage of 0.05. U9G G21C A25C A26U G33U showed a self-cleavage of 0.08. In the case of A6C G7C C15G U32A G33A C42A, the self-cleavage is reported as 0. Work on C3A C15U G22U U43A yielded a self-cleavage of 0.08. In the case of C3G A24C G36C, the self-cleavage is reported as 0.07. For A6U C8G U9C C10U C18U U38G G40C, the self-cleavage was 0. For C10A C37A A41G, the self-cleavage was 0.04. G5U G19C C37G U38A gave a self-cleavage of 0.02. A11U A16C C18U gave a self-cleavage of 0.01. For G2U G5A C15A, the self-cleavage was 0.05. G19U C31G U38A gave a self-cleavage of 0.01. In the case of A12C C15A A16U, the self-cleavage is reported as 0.02. Variant A16C A25C A26G C37U C42G has a self-cleavage of 0.07. In the case of A24G A26U U28G G40A C42A, the self-cleavage is reported as 0. Variant C13U C23U G27U C31G has a self-cleavage of 0.04. With G19U G40U C42A the self-cleavage was 0.15. Variant U9C G21A G40C has a self-cleavage of 0. With A4C C8A A14U G30U G44U the self-cleavage was 0.23. Work on G5U G22C G27A G36A yielded a self-cleavage of 0.04. Variant A16G G33A G44A has a self-cleavage of 0.02. Variant C10G G27U C42G has a self-cleavage of 0.01. Work on G17U C18U C23A G33U A39G C45A yielded a self-cleavage of 0. C8G G36U C37G gave a self-cleavage of 0.06. In the case of A4C G17C C46G, the self-cleavage is reported as 0.02. Variant C3U U20G A25U G36C has a self-cleavage of 0.05. For A12U A24G G35A A41U, the self-cleavage was 0.2. With G1C C10A C31A G40A A41G C42A the self-cleavage was 0. For G5A C8A C15U, the self-cleavage was 1.25. Variant C3G C15U A24G has a self-cleavage of 0.23. G1C U20G A24G A26U gave a self-cleavage of 0.01. In the case of U9G A14C C18A G35C A39G A41U, the self-cleavage is reported as 0.02. G17A C18U U38C G40A G44A showed a self-cleavage of 0.03. Work on G29C G30A C46U yielded a self-cleavage of 0.92. Variant G2A C15A G21A G35U U43C has a self-cleavage of 0.1. With C13U G19A C42U the self-cleavage was 0.14. With G2C A4G G5A A16U A26U G30C the self-cleavage was 0.08. Variant A6G C10A C15U G21U C37U has a self-cleavage of 0. G17A G19A C42A showed a self-cleavage of 0.03. With A4U C31U G33U A41G the self-cleavage was 0.09. C18G U28C G30C showed a self-cleavage of 0.48. C8G U34G C37G A39C gave a self-cleavage of 0. C3A C8U C10G G17A U38C gave a self-cleavage of 0.01. For C10A U28A C42U, the self-cleavage was 0.38. With A11G G40A C46A the self-cleavage was 0. Work on C3G A6U U38A yielded a self-cleavage of 0.28. With C3A G7A U32A C37U A41C the self-cleavage was 0.17. Work on C15G C23U U32A A39C yielded a self-cleavage of 0.01. Variant C15U G30C U43C has a self-cleavage of 0. C8U A12C U20A C37U A39U C42A showed a self-cleavage of 0. In the case of C3U A12C G21U A25G U34G, the self-cleavage is reported as 0.01. A24C G36U C37U showed a self-cleavage of 0.01. With C10A A16C U28C G44C the self-cleavage was 0.01. In the case of G7U C18A G19C G21C U32G A39C, the self-cleavage is reported as 0.11. With C3A G7U C10U U34A the self-cleavage was 0.04. For C8A U20G G33A, the self-cleavage was 0.15. G1C G19C G21A C23A U28C showed a self-cleavage of 0.09. With A12C C15G A26C U38A the self-cleavage was 0. C3G G7C C13U G33C G40A G44U C45U gave a self-cleavage of 0.02. G1U C10U C46A showed a self-cleavage of 0.23. With A11G G17A G27C the self-cleavage was 0.11. Work on G5C G21C G29A C46U yielded a self-cleavage of 0.1. G17A A25G U28A showed a self-cleavage of 0.1. G2A A12U G33C G35U U38A C46G showed a self-cleavage of 0.06. Variant A12C G27C C31U G35A C46A has a self-cleavage of 0.02. With G2A C15G C31A U43C C46A the self-cleavage was 0.03. With G21A C37A C46A the self-cleavage was 0.08. For G1A G27A G29U, the self-cleavage was 1.29. G2U U34G G40A showed a self-cleavage of 0.03. G5A U34G C46U gave a self-cleavage of 0.05. With A4U G5U A24C the self-cleavage was 0.03. In the case of G7U C8A G17C A25G C46A, the self-cleavage is reported as 0.11. Variant A16U G29C G30A has a self-cleavage of 0.1. C8G U9A G22A showed a self-cleavage of 0.03. Variant G2A G21A A26U has a self-cleavage of 0.33. For C3U C8A U9C A12U, the self-cleavage was 0.07. In the case of C3A G19U C23A C45A, the self-cleavage is reported as 0.16. With A6C U9A G33U the self-cleavage was 0.04. Work on A11U A26U U34A C45A yielded a self-cleavage of 0. A16U A24U G36A C42U showed a self-cleavage of 0.01. In the case of G27C U32C G40A, the self-cleavage is reported as 0.03. For C10G G17U G33A G44U, the self-cleavage was 0.04. G2U G21C A24U G29U G33A G36U showed a self-cleavage of 0.02. For C3G C8G U20A A25C G35C A39G, the self-cleavage was 0.03. With C23G C31G G35C the self-cleavage was 0.12. Work on A11C C31A G35A A41G U43A yielded a self-cleavage of 0.01. A12C U34G G40U showed a self-cleavage of 0. Variant A6G C18A C31G A41C has a self-cleavage of 0.04. C3A A16U U32A G36A showed a self-cleavage of 0.14. Variant A12G G22C A25U has a self-cleavage of 0.03. Work on C18U A26U G27U U34C yielded a self-cleavage of 0.02. G2C G22C C31G gave a self-cleavage of 0.12. For A11C A25G U32G U34C G35U, the self-cleavage was 0.04. For C3A U9C G17U U20A C23A, the self-cleavage was 0.02. With C13A A14G G27A the self-cleavage was 0.06. With G1U C10G A16G C18G U28A G33U the self-cleavage was 0. C18G G27U U34C C42A showed a self-cleavage of 0.07. Work on G2C A11U A14C G36C C37U yielded a self-cleavage of 0.02. Variant G2C A26G A39U G40A A41C has a self-cleavage of 0.03. Work on G1U G7A A11U C18A G44C yielded a self-cleavage of 0.01. For G7A G17U G21A G36U, the self-cleavage was 0.3. With C8U G21U G30C the self-cleavage was 0.08. Variant C3U G5C G29U has a self-cleavage of 0.1. Variant C23U U32G G36A C46A has a self-cleavage of 0.03. In the case of A6U A16C G19C U38A, the self-cleavage is reported as 0.16. With C3G A39G G44C the self-cleavage was 0.07. Variant G21U G27U C42A has a self-cleavage of 0.2. For C15U U20C C23A A24U G36A U38A C45A, the self-cleavage was 0.08. G1U C8A C18G gave a self-cleavage of 0.22. A4C G5U A6C G7C C8A C31G showed a self-cleavage of 0.43. C8U G27A G29U showed a self-cleavage of 0.07. In the case of G22C U38A C46A, the self-cleavage is reported as 0.25. With G1U A14G C45A the self-cleavage was 0.05. With C3U A4C G22U the self-cleavage was 0.2. A14C G19C G22A gave a self-cleavage of 0.03. In the case of A12U C13U C18G G19A G30A U34A, the self-cleavage is reported as 0.01. Variant C8G U9A C15U C18A A26C C45U has a self-cleavage of 0.11. C13G G19C U20A showed a self-cleavage of 0.08. For U20C C23U U28C, the self-cleavage was 1.66. Variant G2A C31U U32G G36U A41U has a self-cleavage of 0.05. Work on A11G U20G G30U G33U U43C yielded a self-cleavage of 0.01. With A12U C13G A14C the self-cleavage was 0.01. For G7A C13A A25C U28C G44A, the self-cleavage was 0.1. In the case of C8A A26C G35U C37A, the self-cleavage is reported as 0.02. In the case of C15G G22U A24C C42U, the self-cleavage is reported as 0.01. With G2A G44U C46A the self-cleavage was 0.19. Work on C18G A24C U38A yielded a self-cleavage of 0.03. With C13U G17A G33U A39U C46G the self-cleavage was 0.03. G7C U32G G40A gave a self-cleavage of 0.03. A6G U20G G33U C42G gave a self-cleavage of 0.07. In the case of C10A A26U U28G C45U, the self-cleavage is reported as 0.01. Variant A12U C13U G35U has a self-cleavage of 0.19.
